# Assay results taken from PubChem BioAssay AID1345082 (National Center for Advancing Translational Sciences (NCATS), 2018).
# Among all 94,000 compounds or so, about 4,000 (4.3%) were called active. Inconclusive results, whose numbers are uncertain, are shown with a selection of clear calls. Calls follow the shape of the dose curve; as a rule, active = well fitted inhibition curve with a large enough effect; inconclusive = small, poorly fitted or top-dose-only effect; inactive = no such curve, though single readings can be large or run the other way. Potencies of inconclusive entries are doubtful fits and often do not repeat.
# Experiment: Cytotoxic Profiling in NIH 3T3 Cell Line of Diverse Libraries Using Quantitative High-Throughput Screening; also: nearly all actives have a fitted effect of over 55% in size
# Conditions: NIH 3T3 viability, CellTiter-Glo ATP luminescence, 48-72 h; series mostly up to 96.7 µM
# How it was run: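 Viability of NIH 3T3 cells after 48 or 72 hr compound treatment at 37 °C was assessed by CellTiter-Glo, with luminescence imaged following a 10 min room-temperature step.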
# Potency is read from the fitted curve at half-maximal effect; tags tell the direction and shape of the fitted curve.
row,SMILES,Potency
1,COc1cccc(N2C(=O)NC(=NC3CCCC3)C23CCN(Cc2ccc(N(C)C)cc2)C3)c1 (stereo unspecified),"inconclusive: 56.2 µM [inhibitor, single point]"
2,COc1cccc(CN2CCCC3(CCN(c4nc5ccccc5o4)C3)C2=O)c1 (stereo unspecified),"inconclusive: 39.8 µM [inhibitor, full curve, poor fit]"
3,CC#CCn1cc2c3c(cccc31)[C@H](CC(C)C)N[C@H](C(=O)OC)C2,"inconclusive: 79.4 µM [inhibitor, partial curve]"
4,COCCNc1nc(-c2c(C)noc2C)cc2cc(C(C)C)oc12,"inconclusive: 56.2 µM [inhibitor, partial curve, poor fit]"
5,O=C(Cn1nc2c(cc1=O)CCCC2)NC1CCN(C(=O)c2cc3ccccc3[nH]2)CC1,"inconclusive: 70.8 µM [inhibitor, partial curve, poor fit]"
6,CC1(CNc2ccccc2)COc2ccc(C(=O)NCCN3CCOCC3)cc2N1 (stereo unspecified),inactive
7,COc1ccc(Cn2c3c(c(=O)n2Cc2ccccc2)CCN(Cc2c(C)noc2C)C3)cc1,"inconclusive: 44.7 µM [inhibitor, partial curve, poor fit]"
8,O=C(CC1CCOC2(CCN(S(=O)(=O)Cc3ccccc3)CC2)C1)N1CCCC1 (stereo unspecified),inactive
9,COc1ccc(CC(=O)Nc2ccc([C@@H](O)[C@H]3COCC(=O)N3Cc3ccc(C(F)(F)F)cc3)cc2)cc1,"inconclusive: 50.1 µM [inhibitor, partial curve, poor fit]"
10,O=C(c1ccc(F)cc1F)N1CCN(c2cc(-c3cccs3)[nH]n2)CC1,"inconclusive: 22.4 µM [inhibitor, full curve, poor fit]"
11,COc1cccc(CN2CCC3(C2)NC(=O)c2ccccc2O3)c1 (stereo unspecified),"inconclusive: 44.7 µM [inhibitor, partial curve, poor fit]"
12,CN(C)[S+](=O)([O-])c1ccc2c(c1)OCCN(CCc1ccccc1)C2,"inconclusive: 31.6 µM [inhibitor, partial curve, poor fit]"
13,Cc1c(-c2ccccc2F)[nH]c2ccc(CNC(=O)CN3CC(=O)NC3=O)cc12,"inconclusive: 44.7 µM [inhibitor, partial curve, poor fit]"
14,Cc1ccc(CC(=O)N2CCN(c3cc(-c4cccs4)[nH]n3)CC2)cc1,"inconclusive: 25.1 µM [inhibitor, full curve]"
15,CN(C(=O)CCN1Cc2ccccc2C1=O)C1CCCN(CCc2ccccc2)C1 (stereo unspecified),"inconclusive: 56.2 µM [inhibitor, partial curve, poor fit]"
16,CCCc1noc(-c2nc(-c3ccc4c(c3)OCO4)no2)n1,inactive
